Test results reported in the RNAGym collection of RNA variant scans (doi:10.7554/elife.90254).
The source gives no read counts; variants with many changes may rest on few reads.

B1: OR4K15 (parent)
chain: GUUAACGGUCAUAGGCCAUGGAAACUAGGAGCACCAUUUCGCUGCCAGUGAAGAAAUGAACAAAGAAAAUCUGGGCCAGGCAGGCAUCAAAAGAAAUAGUCUUGCGCUCAACCAGAAAGUCUGUAAUCAUUUUAAGGGUA

Variants of: B1
Assay: self-cleavage, relative activity (ratio to wild type); higher = more cleavage; in vitro, sequencing; the parent is a self-cleaving ribozyme

| Variant | self-cleavage |
| --- | --- |
| A22G A82G U100C | 1.22 |
| A22G A36G A64G A91G | 0.99 |
| U19C G74A A90G A111G | 0.01 |
| U19C U39C A90G A92G | 1.65 |
| G21U A56G A117G U139C | 1.59 |
| U19C U87C A96U | 2.64 |
| A22G U43C A59G A67G | 0.76 |
| A22G A66G A94G | 1.54 |
| A22G A30G U37C U102C A134G | 1.85 |
| U19C U43A A62U U103G | 0.05 |
| U19C U43C A60G C85G A117U A118U | 1.36 |
| A22G A52G A66U U97C A134G | 0.58 |
| U19C A60G C113U | 0.07 |
| G20A A67C G79C U122C | 0.06 |
| G21A A51G G58A A59G | 0.9 |
| U19C A62G A116G | 0.44 |
| U19C U43C A51U A68G | 1.01 |
| A22G A63G U102C A114U | 0.23 |
| A22G A62G A68G A92G U124C | 0.87 |
| U19C U108A A111G | 0.02 |
| G21A A23U A27U A33G G75C U108A U122C | 0.01 |
| A22G A51U A89G | 0.52 |
| G21A A62U A64U A111G | 0.03 |
| A22G A51U A116U | 0.7 |

| Variant | self-cleavage |
| --- | --- |
| U19C A56G U57C | 0.64 |
| U19C A82G A96G U120C | 0.21 |
| U19C U38C A47C A117G | 2.39 |
| A22G A52G U102C U108C G115U | 0.02 |
| A22G A67G U122A | 1.75 |
| U19C U87C A89G A125G | 0.23 |
| A22G A64G A90G A91U U97C | 0.25 |
| U19C A69G C81U | 0.23 |
| A22G A51U A55G | 2.41 |
| G21U A33G U38A A117G | 0.85 |
| U19C A67G U87C | 1.16 |
| U19C U72C A98U | 0.17 |
| A22G A30G A78G A91C U108C | 0.07 |
| G20A U122C A126G | 0.53 |
| A22G U43C A78G | 0.34 |
| A22G G41U A116G | 0.84 |
| G20A A47G A51U A86G U108C G115A | 0.01 |
| U19C A67G U103C | 1.12 |
| U19C A60G U102C U124A | 0.75 |
| A22G A24G U38A U70C U100C A114U | 0.26 |
| G21U U39C A96U U120C | 1.27 |
| A22G A64G U132G | 1.75 |
| A22G A66G U120C U130C | 0.41 |
| A22G A27G A52C A63G A114G A117G | 0.78 |

| Variant | self-cleavage |
| --- | --- |
| A22G A134U G137C | 2.16 |
| A22G A134U G137U | 0.95 |
| G21U A90U A94G A116G U122C | 0.95 |
| U19C U39C A117G | 2.42 |
| A22G U49C A56G C107U | 0.02 |
| A22G G31A U57C A86G U102C U127C | 1.29 |
| A22G A117G U132C | 1.98 |
| A22G U26C U43A U102C | 2.25 |
| A22G C45U A126G | 1.12 |
| U19C U37C A92G | 1.14 |
| G20U C35U U57C A60U A92U | 0.09 |
| U19C U38C A96G A135G | 1.93 |
| A22G U43C A64G A68G | 1.55 |
| U19C U43A A140G | 1.55 |
| A22G A63G A67G U103C | 1.25 |
| A22G A78U A91U U131C | 0.2 |
| U19C A78G A114G A118U U130A | 0.02 |
| A22G A36G A52G A110U | 0.8 |
| G20A U100C U132C | 1.79 |
| A22G A67G A90G | 0.62 |
| A22G U43A A64G U120C | 1.88 |
| A22G U37C A51G A59G A140G | 0.97 |
| A22G A90G U100A A118G | 0.14 |
| U19C U37C A126G U130C | 0.22 |

| Variant | self-cleavage |
| --- | --- |
| U19C A66U A82U | 0.26 |
| A22G G58A A114C | 0.05 |
| A22G A82U A86G A114G | 0.07 |
| G21A A22G A114G U127C | 0.05 |
| U19C G75C A90G | 0 |
| U19C A62G A91G U108A U132C | 0 |
| A22G A56G A78U U130C | 0.18 |
| G21U A64G A96G U124C | 0.57 |
| G20A A54G U57A A60G | 0.35 |
| A22G A30G U43C A54G A62G U70C | 1.44 |
| U19C U39A A111G | 0.01 |
| A22G A51G U122C | 1.15 |
| A22G A82U A111G | 0.03 |
| U19C A59G G99U | 0.37 |
| A22G A24G A116U | 0.48 |
| A22G U39A A117G A140G | 1.74 |
| A22G A30G U87G A94G | 0.68 |
| U19C A116G U122C | 0.41 |
| A22G A30U U39C A95G | 1.73 |
| A22G A51G A94G A96G G123A | 1.11 |
| A22G U43C A86G | 0.94 |
| A22G G41A A64G U70C A78G G136A | 0.37 |
| A22G A63C A140G | 1.73 |
| U19C A86U U102C U122C | 1.3 |

| Variant | self-cleavage |
| --- | --- |
| A22G A24G A96G A134U | 0.34 |
| A22G U38C U102C | 2.25 |
| U19C A54G U100A U127C | 0.32 |
| G20A A62G A90G A94U | 1.97 |
| A22G A96G U122C | 1.74 |
| A22G A30G A33G A55G A82G | 0.25 |
| A22G U37C A78U A117U | 0.12 |
| A22G U37C A68G A126G | 1.22 |
| U19G A33G A66G A90G U102C A117G | 2.15 |
| U19C G48A A62G A96G | 0.77 |
| A22G A69U U103A U120G U130G | 0.28 |
| A22G U26A U122C U132C | 0.57 |
| A22G A59G U87C U103C | 0.6 |
| A22G C45U U120C C121U U130C | 0.75 |
| A22G A51G A62G A89U A134G | 0.52 |
| A22G A33G U127C A129G | 0.06 |
| U19G A52G C81A | 0.69 |
| A22G A23G A64G A86G A90G A126G | 0.3 |
| A22G A47G A78G U102C | 0.24 |
| U19C U43C U57A A62G A110G | 0.06 |
| U19C U87C U103C | 1.08 |
| G21A A22G A52U | 2.08 |
| U19G U38C U72G | 0.55 |
| A22G A66G A129G | 0.86 |

| Variant | self-cleavage |
| --- | --- |
| U19C A63G U87A A125G | 0.49 |
| U19C U38C C77U | 1.84 |
| U19C G48U U100C | 2.23 |
| A22G U39C A51G U122C | 0.89 |
| A22G A92U A114C U130C | 0 |
| A22G A69C U70C | 0.47 |
| A22G A23G A56C | 0.84 |
| A22G U43A A135G | 2.13 |
| G21A A89G A114G U127A | 0.27 |
| G21A A23G A89G A92G A111G U120A | 0 |
| A22G A54G A126G | 0.3 |
| A22G A111C U122C | 0.01 |
| G20A U38A A91G | 1.8 |
| A22G A94G U127A | 1.61 |
| U19G U43A A54G C77U U100C | 0.62 |
| A22G C40U A110G U130A | 0.07 |
| A22G A47G A52U C101U A114U | 0.04 |
| G20A A59G U70C A118G U124A | 0.09 |
| A22G A23G A60G A126G | 0.56 |
| U19G U43C A89G A92G U122C U127C U130C | 1.27 |
| G20A G106A A116G | 0.04 |
| G20A A82U U122C A134G | 0 |
| G21A A82U A96G | 0.38 |
| U19C A66G A89C | 1.25 |

| Variant | self-cleavage |
| --- | --- |
| A22G C40U A51C A56G G65A A68G A86G U103C C113A | 0.09 |
| A22G A23U A118G | 0.81 |
| A22G A89G U100C | 1.9 |
| U19C A89U U120C | 1.06 |
| G21A A51U A86U A95G U132C | 2.23 |
| G20U C25A A96G A118G | 0.32 |
| A22G C25A U39C A110G | 0.14 |
| A22G A27G A90G | 1.2 |
| A22G A56G A60G A90G G115U U120C | 0.01 |
| U19G C45U A89G | 1.1 |
| A22G A56G A92G A117U | 0.9 |
| U19C A126U U132A | 1.1 |
| U19C U57C A66G A110G A117G C121A | 0.13 |
| A22C A78U A96G G106U | 0.01 |
| A22G A94G G106U | 0.02 |
| A22G A27G U72C A96G | 0.44 |
| A22G A36U A64G U130C | 0.84 |
| A22C A33G A56G U70C | 0.19 |
| U19C A60G U122G | 1.94 |
| A22G A51G A92G A116U | 0.2 |
| A22G A90G U131C | 0.65 |
| A22G A56G U72C A86U C121U | 0.68 |
| U19C U49C A67G A86G U122A | 1.35 |
